Assay results taken from PubChem BioAssay AID1645887 (National Center for Advancing Translational Sciences (NCATS), 2021).
Values joined by “and” are separate entries in the source; they are usually repeats but may differ in a detail not shown here. Equal values may be shown once. Out of some 16,000 compounds screened, about 40 (0.2%) were called active. About 1% were inconclusive and are not listed. The call rests on the fitted dose curve; in most records, active means well fitted activation curve with a large enough effect; inconclusive means small, poorly fitted or top-dose-only effect, or another doubt; inactive means no such curve, though single readings can be large or run the other way. This is one part of the list.

What follows are compounds tested against Rap guanine nucleotide exchange factor 4 (Homo sapiens) (UniProt Q8WZA2) (assay: Validation qHTS for agonist of cAMP-regulated guanine nucleotide exchange factor 4 (EPAC2)). Conditions: EPAC2 Rap1B BODIPY-GDP exchange, fluorescence; activation: stronger effect = higher value.
Procedure, shortened: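 Signal normalized against 6.5 mM cAMP as agonist control. Mix of EPAC2 (100 nM), RAP1B-BODIPY-GDP (250 nM) and GDP (50 uM) was read kinetically at 480/540 nm, every 5 min over 30 min, after 5 min room-temperature incubation with compound.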
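Further: exchange makes BODIPY-GDP fluorescence drop when released from Rap1B; series mostly up to about 150 µM.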
On the % scale 0 is the no-effect control and ±100 the full control effect.

Chain of UniProt Q8WZA2 (Q8WZA2 whole entry, looked up): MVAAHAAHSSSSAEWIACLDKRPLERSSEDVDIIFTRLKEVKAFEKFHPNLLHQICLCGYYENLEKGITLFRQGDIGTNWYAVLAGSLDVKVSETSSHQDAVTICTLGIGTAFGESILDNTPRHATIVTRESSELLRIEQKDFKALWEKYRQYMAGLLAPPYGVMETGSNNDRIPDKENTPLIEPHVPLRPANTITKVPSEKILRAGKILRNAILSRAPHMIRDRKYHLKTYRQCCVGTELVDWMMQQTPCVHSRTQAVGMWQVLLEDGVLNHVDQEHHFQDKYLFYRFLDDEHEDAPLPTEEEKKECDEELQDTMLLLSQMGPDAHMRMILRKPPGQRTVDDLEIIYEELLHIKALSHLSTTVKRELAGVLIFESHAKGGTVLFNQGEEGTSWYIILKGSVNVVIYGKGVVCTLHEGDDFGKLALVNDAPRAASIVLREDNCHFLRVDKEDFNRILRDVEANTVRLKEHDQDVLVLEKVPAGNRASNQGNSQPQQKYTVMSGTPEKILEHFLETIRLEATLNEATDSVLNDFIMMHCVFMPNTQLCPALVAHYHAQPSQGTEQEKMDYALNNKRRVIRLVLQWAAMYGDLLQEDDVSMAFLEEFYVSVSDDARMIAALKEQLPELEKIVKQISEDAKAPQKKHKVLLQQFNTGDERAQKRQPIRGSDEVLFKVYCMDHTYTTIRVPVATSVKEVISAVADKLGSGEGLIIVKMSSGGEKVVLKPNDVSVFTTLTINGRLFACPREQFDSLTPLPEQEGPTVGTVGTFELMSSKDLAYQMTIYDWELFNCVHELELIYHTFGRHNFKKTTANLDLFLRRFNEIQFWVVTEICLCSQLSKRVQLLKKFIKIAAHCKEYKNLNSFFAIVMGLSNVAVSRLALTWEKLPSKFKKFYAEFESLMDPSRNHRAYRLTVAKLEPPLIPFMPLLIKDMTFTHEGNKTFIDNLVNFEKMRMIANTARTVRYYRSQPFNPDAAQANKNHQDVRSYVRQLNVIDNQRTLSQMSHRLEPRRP

Structure (SMILES)	activation
CC[C@]1(O)CC(O[C@@H]2CC(N(C)C)C(O)C(C)O2)c2c(cc3c(c2O)C(=O)c2c(O)cccc2C3=O)C1C(=O)OC (stereo partly drawn)	inactive: 1.66%
CN=C1CN(O)C(c2ccccc2)=c2cc(Cl)ccc2=N1	inactive: -1.18% and inactive: 3.28%
NC(=O)CN1CC(O)CC1=O (stereo not drawn)	inactive: -3.63% and inactive: -11.7%
CCOC(=O)NC(C)(C)Cc1ccc(Cl)cc1	inactive: -3%
C[C@]12CCC(=O)C[C@@H]1CC[C@@H]1[C@@H]2CC[C@@]2(C)[C@H]1CC[C@]2(C)O	inactive: 0.244%
CN1CCC(=O)N(CCN=[N+]=[N-])CC1	inactive: -6.9%
CC(=O)OC1CC(OC(C)=O)[C@]2(C)C(CC(OC(C)=O)[C@]3(C)C2CC[C@@]2(C)C(c4ccoc4)C[C@H]4O[C@]432)C1(C)C (stereo partly drawn)	inactive: -14.9%
O=C1CC[C@@]2(O)[C@H]3Cc4ccc(O)c5c4[C@@]2(CCN3CC2CC2)[C@@H]1O5	inactive: -4.11%
CC(C)[C@@]1(NC(=O)[C@@H]2C[C@H]3c4cccc5[nH]cc(c45)C[C@@H]3N(C)C2)O[C@@]2(O)[C@H]3CCCN3C(=O)[C@H](Cc3ccccc3)N2C1=O	inactive: 5.13% and inactive: -22.2%
COc1ccn(C)c(=O)c1C#N	inactive: 4.11%
CC(CO)NC(=O)C1C=C2c3cccc4[nH]cc(c34)C[C@H]2N(C)C1 (stereo partly drawn)	inactive: -6.28%
CC(N)Cc1ccc2c(c1)OCO2 (stereo not drawn)	inactive: -2.6%
CO[C@H]1CC=C2CCN3CCC4=C(CC(=O)OC4)[C@]23C1	inactive: 4.63% and inactive: -36%
c1cc(CN2CCCC3(CCNCC3)C2)ccn1	inactive: -4.81%
COc1cc(C2c3cc4c(cc3C(OC(C)=O)[C@H]3COC(=O)C23)OCO4)cc(OC)c1OC (stereo partly drawn)	inactive: -22.8% and inactive: 0.431%
N[C@]1(C(=O)O)CC[C@@H](C(=O)O)C1 (racemic)	inactive: 0.419% and inactive: 3.33%
COc1cc2c(cc1OC)-c1c(OC)c(OC)c(CO)c3c1C(C2)N(C)CC3 (stereo not drawn)	inactive: 9.27%
Cl.Cl.Cl.Cl.Cl.Cl.N.N.N.N.NNNNN.NNNNN.O.O.[Ru].[Ru].[Ru]	inactive: -33.5%
CN1CCCCC1c1cccnc1 (stereo not drawn)	inactive: -9.81%
C[C@]12CC[C@@H]3[C@@H](CCC4=CC(=O)CC[C@@H]43)[C@@H]1CC[C@@H]2OC(=O)CCc1ccccc1	inactive: -0.868%
COc1ccccc1CN1CCCC2(CCN(C(=O)Oc3ccccc3)CC2)C1	inactive: -12.7%
Nc1ccncc1	inactive: -1.4% [middle of 5 runs]

Structure (SMILES)	activation
CC[C@H](C)[C@H](NC(=O)[C@H](CCCN=C(N)N)NC(=O)[C@H](CCCN=C(N)N)NC(=O)[C@H](CC(C)C)NC(=O)[C@H](Cc1ccccc1)NC(=O)CNC(=O)CNC(=O)[C@@H](N)Cc1ccc(O)cc1)C(=O)N[C@@H](CCCN=C(N)N)C(=O)N1CCC[C@H]1C(=O)N[C@@H](CCCCN)C(=O)N[C@@H](CC(C)C)C(=O)N[C@@H](CCCCN)C(=O)O	inactive: -12.6%
C[N+]1(CCF)[C@@H]2CC[C@H]1CC(OC(=O)C(O)(c1ccccc1)c1ccccc1)C2 (stereo partly drawn)	inactive: 6.52%
NC1(c2ccccc2)CCCCC1	inactive: 9.13%
C[N+]1(C)CCOC(O)(c2ccc(-c3ccc(C4(O)C[N+](C)(C)CCO4)cc3)cc2)C1 (stereo not drawn)	inactive: -0.781% and inactive: 0.792%
O=C1CC[C@@]2(O)C3Cc4ccc(O)c5c4C2(CCN3CC2CC2)[C@H]1O5 (stereo partly drawn)	inactive: -12.4%
O=C(O)CNCP(=O)(O)O	inactive: -1.55%
c1csc(CN2CCCC3(CCNCC3)C2)n1	inactive: -10.1%
CCN1C[C@]2(COC)CC[C@H](OC)[C@@]34C5C[C@@H]6[C@@H](OC)C[C@@]7(OCO[C@@]7([C@@H](O)C23)[C@@H]14)C5[C@H]6OC (stereo partly drawn)	inactive: -3.22%
CN(C)Cc1c[nH]c2ccccc12	inactive: -3.14% and inactive: -13.8%
c1cncc(C2CCCCN2)c1 (stereo not drawn)	inactive: 7.66% and inactive: -18.9%
COc1cccc(C(=O)CCN[C@@H](C)[C@H](O)c2ccccc2)c1	inactive: -4.52%
C#CCOC(C(=O)OCCN(C)C)(c1ccccc1)c1ccccc1	inactive: -20%
CCC1(c2ccccc2)C(=O)NC(=O)N(C(=O)c2ccccc2)C1=O (stereo not drawn)	inactive: 1.65%
CCS(=O)(=O)Nc1cccc(C(=C2CCCCC2)c2cnc[nH]2)c1	inactive: -23.4%
CCCCOC(=O)c1ccccc1C(=O)OCc1ccccc1	inactive: -26.7%
NCC(O)c1cc(O)c(O)cc1F (stereo not drawn)	inactive: -25.9%
CC[C@@H](C(N)=O)N1CCCC1=O	inactive: -26.7%
O=C(O)CCCc1ccc(N(CCCl)CCCl)cc1	inactive: -14% and inactive: -25.7%
O=C(Nc1cccc(F)c1)N1CCC2(CC1)CCN(C(=O)Oc1ccccc1)CC2	inactive: -16.2%
O=C(c1cnccn1)N1CCC2(CC1)CN(Cc1ccncc1)C2	inactive: -6.17%
c1ccc2c(c1)OC[C@@H](C1=NCCN1)O2	inactive: -12.3%
